In all, about 48,000 compounds went through this assay and about 450 (0.94%) were called active. Roughly 19% stayed inconclusive and do not appear here. Calls come from the whole dose curve; as a rule, active = well fitted inhibition curve with a large enough effect; inconclusive = small, poorly fitted or top-dose-only effect; inactive = no such curve, though single readings can be large or run the other way. This is one part of the list.
experiment: Primary qHTS for Identification of Small Molecule Inhibitors of Huntingtin Promoter Activity; details: HEK293 HTT promoter firefly luciferase reporter (activity 0% = vehicle and -100% = no light), 24 h; series mostly up to 57.5 µM; activity change, negative = inhibition: at the top concentration; note: nearly all actives have a fitted effect of over 50% in size
Summary of the method: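 HEK293 Fluc reporter, 2,500 cells/well, 24 h pre-culture; cpds up to 57.5 uM final, 24 h 37 degrees C; Dual-Glo, 10 min RT; normalized vehicle = 0%, zero RLU = -100%.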
Potency is the fitted concentration of half-maximal effect.

Activity change, negative = inhibition, inactive:
Cc1ccc(S(=O)(=O)Nc2nc3n(n2)C(c2ccc(F)cc2)C=C(c2ccccc2)N3)cc1 (configuration not stated) -8.71%
CC1=C(C(=O)Nc2ccc(Cl)cc2)C(CC(C)C)n2nc(SCc3ccccc3C)nc2N1 (configuration not stated) -12.9%
COc1ccccc1CNS(=O)(=O)c1cnc(N)nc1 -4.85%
O=C(NCC(c1ccco1)S(=O)(=O)c1cccs1)c1ccccc1F (configuration not stated) 33.2%
COc1cccc(CNc2cc(C)nc3nc(-c4ccc(C)cc4)nn23)c1 -6.31%
Cc1ccc(N2CC(C)Cn3c2nc2c3c(=O)n(Cc3cccc(Cl)c3)c(=O)n2C)cc1 (configuration not stated) -2.77%
CCCc1cc(=O)[nH]c2nnc(SCC)n12 -5.37%
O=c1oc2ccc3ccccc3c2cc1-c1nnc(Nc2ccc(F)cc2)s1 -2.84%
O[C@@H](c1cc(C(F)(F)F)nc2c(C(F)(F)F)cccc12)[C@H]1CCCCN1 -27.8%
Cc1ccc(-n2nc3c(=O)n(C(C)C(=O)NCc4ccco4)nc(C)c3c2C)cc1 (configuration not stated) -25%
NS(=O)(=O)c1cc2c(cc1C(F)(F)F)NC(Cc1ccccc1)NS2(=O)=O (configuration not stated) 9.05%
O=C(NC1(C(F)(F)F)NC(=O)N(CCc2ccccc2)C1=O)c1ccc(Cl)cc1 (configuration not stated) -26.3%
COC(=O)CC1Oc2ccc(Cl)cc2-n2cc(-c3ccccc3)nc21 (configuration not stated) -12.7%
Oc1c(C(c2ccccc2)N2CCC(O)CC2)sc2nc(-c3ccco3)nn12 (configuration not stated) -8.15%
Cc1ccc(C)c(NC(=O)c2ccc(CN3CC(=O)N4CCCCC4C3=O)cc2)c1 (configuration not stated) -25.8%
CC(=O)Nc1ccc(NC(=O)c2ccc3c(c2)N(Cc2cccc(Cl)c2)C(=O)c2ccccc2S3(=O)=O)cc1 -22.3%
CCOC(=O)C(C)Sc1ccc2nnc(CCNS(=O)(=O)c3ccccc3)n2n1 (configuration not stated) -2.57%
CCn1c(CN2CCCCC2)nc2cc(NC(=O)c3cc(OC)c(OC)c(OC)c3)ccc21 -15.7%
CC1N=C2c3ccccc3N=C(SCC(=O)NCCc3ccccc3)N2C1=O (configuration not stated) -22.4%
CN(Cc1ccccc1)C(=O)c1nc(-c2ccc(Cl)cc2)n2c1CCCCC2 -22%
COc1cccc(N2CCN(C(=O)CCCCCn3c(=O)[nH]c4ccccc4c3=O)CC2)c1 -17.5%
CC1CCn2c(nc3cc(C(=O)NCc4ccc(OC(C)C)cc4)ccc32)C1 (configuration not stated) 45.2%
CCC(C(=O)NC1CCC(C)CC1)n1nc(C)c2sc3ccccc3c2c1=O (configuration not stated) 44.5%
CC(C)c1ccc(NC(=O)CSc2nc3ccccc3nc2Cc2ccccc2)cc1 -8.63%
COc1ccccc1CNC(=O)C1CCN(S(=O)(=O)c2ccc3c(c2)CCCN3C(C)=O)CC1 -19.4%
CN(C)CCNC(=O)C(=O)NCC(c1cccnc1)N1CCN(c2ccc(F)cc2)CC1 (configuration not stated) -1.78%

Potency, active:
CCCCOc1cccc(C(=O)N(Cc2ccc(C)o2)c2ccccn2)c1 28.2 µM
